Source: PubChem BioAssay AID1645882 (National Center for Advancing Translational Sciences (NCATS), 2021)
Screen size: about 16,000 compounds; about 120 (0.75%) were called active. Not shown: some 4% with an inconclusive outcome. Calls follow the shape of the dose curve; as a rule, active = well fitted inhibition curve with a large enough effect; inconclusive = small, poorly fitted or top-dose-only effect; inactive = no such curve, though single readings can be large or run the other way. Some of the results follow.

biological target: Rap guanine nucleotide exchange factor 3 (Homo sapiens) (UniProt O95398); test: Validation qHTS for antagonist of cAMP-regulated guanine nucleotide exchange factor 3 (EPAC1); conditions: EPAC1 Rap1B-BODIPY-GDP exchange, fluorescence; series mostly up to 150 µM; activity change, negative = inhibition: at the top concentration;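 also: plate controls were DMSO for no effect and ATA control for full effect; nearly all actives have a fitted effect of over 75% in size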
Chain of UniProt O95398 (O95398 whole entry, looked up): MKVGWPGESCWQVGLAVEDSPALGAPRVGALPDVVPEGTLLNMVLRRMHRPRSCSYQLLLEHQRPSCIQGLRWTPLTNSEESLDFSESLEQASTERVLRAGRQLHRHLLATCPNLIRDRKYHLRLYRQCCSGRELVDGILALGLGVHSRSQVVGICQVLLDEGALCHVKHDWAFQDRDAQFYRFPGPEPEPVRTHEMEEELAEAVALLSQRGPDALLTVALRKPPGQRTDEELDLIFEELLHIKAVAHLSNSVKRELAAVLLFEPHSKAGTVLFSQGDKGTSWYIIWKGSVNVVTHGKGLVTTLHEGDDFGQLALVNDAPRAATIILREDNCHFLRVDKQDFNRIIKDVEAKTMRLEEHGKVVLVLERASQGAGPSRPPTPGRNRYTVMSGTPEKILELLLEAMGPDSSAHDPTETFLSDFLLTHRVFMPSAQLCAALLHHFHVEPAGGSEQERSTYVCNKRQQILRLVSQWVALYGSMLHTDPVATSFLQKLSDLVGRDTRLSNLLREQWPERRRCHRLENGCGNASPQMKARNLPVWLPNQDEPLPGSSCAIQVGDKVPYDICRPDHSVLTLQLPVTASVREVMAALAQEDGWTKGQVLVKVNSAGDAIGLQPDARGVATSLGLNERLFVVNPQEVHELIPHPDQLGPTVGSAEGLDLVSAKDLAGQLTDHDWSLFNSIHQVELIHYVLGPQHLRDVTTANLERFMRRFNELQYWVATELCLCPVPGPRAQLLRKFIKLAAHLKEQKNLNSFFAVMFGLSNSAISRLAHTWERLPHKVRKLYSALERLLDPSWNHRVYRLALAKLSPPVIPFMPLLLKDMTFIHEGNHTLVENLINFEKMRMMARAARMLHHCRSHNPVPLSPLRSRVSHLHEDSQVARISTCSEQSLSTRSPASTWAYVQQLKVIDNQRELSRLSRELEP
In short: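 Nucleotide exchange followed as fluorescence loss when BODIPY-GDP leaves Rap1B (480 nm excitation, 540 nm emission), read at 5 min intervals over 30 min. Reaction: 100 nM EPAC1, 250 nM RAP1B-BODIPY-GDP, 50 uM GDP; ATA and DMSO define normalization.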

Activity change, negative = inhibition, inactive:
CCCCC/C=C\C/C=C\CCCCCCCC(=O)NCC(=O)O 16.1% [at 15.3 µM]
CS(=O)(=O)Nc1cccc(-c2nc(N3CCNCC3)c3ccccc3n2)c1 -24.4%
COc1ccccc1CN1CCCC2(CCN(S(=O)(=O)c3ccccc3)CC2)C1 12.6%
COc1cc2oc(-c3ccccc3)cc(=O)c2cc1OC 10.2%
CN(C)C(=O)c1ccc(-c2nc(Nc3ccccc3)c3ccccc3n2)cc1 -15%
CC(C)[C@@H]1C(=O)N(S(C)(=O)=O)[C@H]2CCN(C(=O)/C=C\CN3CCCCC3)[C@@H]12 13.9%
CC(=O)N1CCC2(CCN(Cc3nccs3)CC2)CC1 16.2%
COc1ccc(F)c(CN2CCOc3ccc(CN4CCCCC4CO)cc3C2)c1 (stereo not drawn) 6.5%
CC[C@H](C)C(=O)O[C@H]1C[C@@H](C)C=C2C=C[C@H](C)[C@H](CC[C@@H]3C[C@@H](O)CC(=O)O3)[C@H]21 -4.53% [at 201 µM]
COc1cccc(Cn2c(=O)c(C)nc3cnc(Oc4ccccc4)nc32)c1 3.71%
CC(C)CN1CCCC2(CCN(S(=O)(=O)c3ccccc3)CC2)C1 7.25%
O=C(c1ccco1)N1CCC2(CCCN(c3cccc(-c4ccccc4)c3)C2)CC1 7.37%
CCCCCCCCCCCCCCCC(=O)OCC(COP(=O)(O)O)OC(=O)CCCCCCCCCCCCCCC (stereo not drawn) 24.9% [at 15.3 µM]
CCOC(=O)c1c(C)cc(O)c(C=O)c1O 16.9%
COC(=O)C1=C(C)NC(C)=C(C(=O)OCCCN2CCC(c3ccccc3)(c3ccccc3)CC2)C1c1cccc([N+](=O)[O-])c1 (stereo not drawn)
O=C(O)C[C@@H]1NC(=O)[C@H](Cc2ccccc2)NC1=O -5.9%
CCN(CC)CCOC(=O)c1ccc(N)cc1
COc1ccc(/C=c2\[nH]c(=O)/c(=C/c3ccc(OC)cc3)[nH]c2=O)cc1 15.9%
COc1ccccc1-c1ccc2ncnc(N3CCNCC3)c2c1 2.41%
Cc1noc(C)c1-c1ccc2ncnc(NCCN3CCOCC3)c2c1 2.89%
Cn1ccnc1 -6.7% [at 75.8 µM]
Cc1cccc(C)c1NC(=O)CN(CC(=O)O)CC(=O)O 9.1%
CN1CCN(c2ncc3nc(-c4cn(C)c5ccccc45)c(=O)n(C[C@H]4CCCO4)c3n2)CC1 20.7%
Cc1cnc(CNc2ncnc3ccc(-c4ccccc4C)cc23)cn1 2.89%
CC1(c2ccccc2)OC(C(=O)O)=CC1=O (stereo not drawn) -21.9%
N#Cc1ccc[n+](CC(=O)c2ccc(F)cc2)c1 21.9%
CC(NC(=O)c1cc(F)ccc1F)c1nnc2n1CCN(Cc1ccc(-c3ccccc3)cc1)CC2 (stereo not drawn) -22.5%
COc1cc(C(=O)OC2CC[C@]3(C)C4CCC5[C@]6(O)CC(O)[C@]7(O)C(CN8CC(C)CCC8[C@]7(C)O)[C@]6(O)C[C@@]53O[C@]24O)cc(OC)c1OC (stereo partly drawn) 18.3%
Cc1cc(O)c(C(C)C)cc1Cl 17.2%
COc1cc(N(C)C)c(OC)cc1C=O -23.4%
C[C@H](O)CN(C)C 18.8%
O=C(c1cccc(F)c1)N1CCC2(CC1)CN(C(c1ccccc1)c1ccccc1)C2 -1.98%
N[C@H](C(=O)O)[C@@H]1CC(Cl)=NO1 20.4%
Cc1ncoc1C(=O)NCc1nc(-c2cccc(NC(=O)c3ccccn3)c2)oc1C 1.99%
O=C(C[C@H]1C(=O)N(CCc2ccccc2)C[C@@H]1Cc1ccccc1)Nc1ccccc1 -5.93%
COc1c(C(C)C)oc2cc3oc(=O)ccc3cc12 10.3%
Cc1noc(C)c1-c1nccc(-n2ccnc2)n1 29.1%
c1ccc2c(c1)sc[n+]2CCC1CCCCC1 6.15%
COc1ccc(-c2nc3cnc(N4CCOCC4)nc3n(Cc3cccc(OC)c3)c2=O)cc1 7.77%
CCCCNc1cc(C(=O)O)cc(S(N)(=O)=O)c1Oc1ccccc1
CN(CCO)C(=O)c1cn(C2CCCN(Cc3ccc4ccccc4c3)C2)nn1 (stereo not drawn) 13.8%
C[C@H](Cn1cnc2c(N)ncnc21)OCP(=O)(O)O 14%
CNC(=O)c1c(I)c(C(=O)NCC(=O)Nc2c(I)c(C(=O)O)c(I)c(C(=O)NCCO)c2I)c(I)c(N(C)C(C)=O)c1I -2.45%
O=S1(=O)CCOC[C@H](c2ccccc2)N1Cc1ccc(Cl)c(Cl)c1 -14.9%
CN1CCN(c2ncc3ncc(=O)n(CCc4ccccc4)c3n2)CC1 11%
CC(CN1CC(=O)NC(=O)C1)N1CC(=O)NC(=O)C1 (stereo not drawn) -14.3%
O=c1c(O)c(-c2ccc(O)cc2)oc2ccccc12 33.7%
Clc1ccccc1-c1ccc2ncnc(N3CCNCC3)c2c1 8.49%
CCOC(=O)[C@H](CCc1ccccc1)N[C@@H](C)C(=O)N(CC(=O)O)C1Cc2ccccc2C1 3.39%
Cc1noc(C)c1C(=O)N1CCC2(CCCN(Cc3ccc(C#N)cc3)C2)CC1 10.4%
O=C1O[C@@H]2[C@@H](O)[C@H](O)O[C@@H]2[C@H]1O -3.74%
COc1cc(CN2CCOc3ccc(CN4CCC(O)(c5cccnc5)CC4)cc3C2)ccc1F 8.96%
CCN(CC)c1ncnc2c1ncn2[C@@H]1O[C@@H](COP(=O)(O)OP(=O)(O)C(Br)(Br)P(=O)(O)O)[C@H](O)[C@H]1O -0.274%
O=C1CCN(Cc2ccccc2)S(=O)(=O)c2ccc(C(F)(F)F)cc21 0.214%
COc1cc(-c2coc3cc(O[C@H]4OC(CO)C(O)C(O)C4O)c(OC)c(O)c3c2=O)cc(O)c1OC (stereo partly drawn) 9.79%
O=c1c(-c2ccccc2)nc2cnc(N3CCOCC3)nc2n1-c1ccccc1 7.8%
O=c1ccn([C@@H]2O[C@H](CO)[C@@H](O)[C@H]2O)c(=O)[nH]1 17.3%
COc1ccc2[nH]c(-c3ccccc3)c(CCNC(C)=O)c2c1
COc1ccccc1C1CN(CCNC(=O)c2cnsn2)Cc2ccccc2O1 (stereo not drawn) -10.5%
CCOC(=O)C1=CC2(CC)CCCN3CCc4c(n1c1ccccc41)C32 (stereo not drawn) 9.86% [at 201 µM]
Cc1cc(-c2ccnc(-n3ncc(C(=O)N(C)Cc4nccs4)c3C)n2)c(C)s1 17.5%
CC(C)(C)c1ccc(C(=O)CCCN2CCC(OC(c3ccccc3)c3ccccc3)CC2)cc1
COCC(=O)N1CCC2(CCCN(C(=O)Nc3cccc(F)c3)C2)CC1 0.21%
CCCCCC(O)c1cccc(OCc2ccc3ccccc3n2)c1 (stereo not drawn)
C/C1=C/CC(C)(C)/C=C/C/C(C)=C/CC1 11.7%
COc1cccc(-c2coc3c(C)c4oc(=O)c(CCC(=O)O)c(C)c4cc23)c1 7.93%
CCCCC/C=C\C/C=C\CCCCCCCCCC(=O)O 0.107% [at 15.3 µM]
NC(Cc1ccccc1)C(=O)O (stereo not drawn) 17.1%
CNC(=O)Oc1ccc2c(c1)[C@@]1(C)CCN(C)C1N2C (stereo partly drawn)
Cc1cnc(CNc2nc(-c3ccccc3Cl)nc3ccccc23)cn1 -12.7%
O=C(O)c1ccncc1 19.1%
O=[N+]([O-])O[C@@H]1CO[C@H]2[C@@H]1OC[C@@H]2O 6.19%
O=C(NCCCN1CCCCCC1)C(c1ccccc1)C1CCCCC1 (stereo not drawn) 4.66%
COc1ccc(C(=O)N2CCC3(CC2)CN(c2ccccc2)C3)cc1 -2.38%
COc1ccc(C2(C(=O)NCC3Cc4cccc(-c5nc(C)cnc5C)c4O3)CCCC2)cc1 (stereo not drawn) 6.42%
CN[C@H]1CCc2cc(OC)c(OC)c(OC)c2-c2ccc(OC)c(=O)cc21 18.9%
N#Cc1ccc(CN2CCCC3(CCN(C(=O)c4csnn4)CC3)C2)cc1 3.47%
Cc1ccnc(NS(=O)(=O)c2ccc(N)cc2)n1
O=C(Nc1ccc(Cl)cc1Cl)[C@@H]1CC=C[C@@H]2CCN(Cc3ccccc3)C(=O)[C@@H]21 -11.2%
NC(=O)OCC(COC(N)=O)c1ccccc1
Cc1nc2cnc(Nc3ccccc3)nc2n(Cc2cccs2)c1=O 17.8%
COc1ccccc1-c1cc(NCc2cnc(C)cn2)ncn1 11.1%
COC(=O)C1N2C(=O)[C@@H](NC(=O)COc3ccccc3)[C@H]2SC1(C)C (stereo partly drawn) -2.56%
Fc1ccc([C@H]2CCNC[C@H]2COc2ccc3c(c2)OCO3)cc1 -6.41%
O=c1c(O)c(-c2ccccc2)oc2cccc(O)c12 -7.83%
Cc1cc(C(=O)O[C@H]2[C@H](C)NS(=O)(=O)[C@H]3C[C@@H]4C=C[C@]23O4)cc([N+](=O)[O-])c1 3.38%
C(=C1C=c2ccccc2=C1)c1ccc(N=Nc2ccc(C=C3C=c4ccccc4=C3)cc2)cc1 -0.575%
O=C(NCc1ccccn1)c1cnn(-c2nccc(-c3cc4ccccc4o3)n2)c1C1CC1 8.83%
COc1ccc(C[C@H](N)C(=O)N[C@H]2[C@@H](O)[C@H](n3cnc4c(N(C)C)ncnc43)O[C@@H]2CO)cc1 15.1%
[O-][n+]1cccc(CO)c1 1.71%
COc1ccc(CCNC(=O)C(=O)c2c[nH]c3ccccc23)cc1 -13.5%
COC(=O)c1cc(-c2c(-c3ccc4c(c3)OCO4)noc2-c2ccsc2)cc([N+](=O)[O-])c1 12.1%
Cc1nc(CC(=O)NCC2Cc3cc(F)cc(-c4ccc(F)c(C)c4)c3O2)cs1 (stereo not drawn) -13.7%
O=C(c1cccc(F)c1)N1CCC2(CC1)CN(c1cccc(-c3ccccc3)c1)C2 -4.46%
COCc1nc2c([nH]1)c(=O)n(C)c(=O)n2CC(C)C
CCCCCCCCCC[Si](C)(C)CCC(=O)NC(Cc1ccc(C)cc1)c1ccccc1 (stereo not drawn) -3.54% [at 75.8 µM]
CN1CCC(Nc2ncc3ncnc(Nc4ccc(F)c(Cl)c4)c3n2)CC1 18.7%
O=C1C(c2[nH]c3ccccc3c2O)=Nc2ccccc21 0.283%
Cc1cccc(CNc2ncncc2-c2ccccc2C(F)(F)F)c1 22%
CN(Cc1ccco1)c1ncnc2ccc(-c3ccc4c(c3)OCO4)cc12 -1.48%
COc1cc(CN2CCC3(CC2)CC3C(=O)Nc2ccc3sc(C)nc3c2)ccc1F (stereo not drawn) 10.3%
OC[C@H]1O[C@@H](n2cnc3c(NCc4ccccc4)ncnc32)[C@H](O)[C@@H]1O 8.34%
Oc1ccc(CCNCCCCCCNCCc2ccccc2)cc1O 19%
